The IC50 comes from the fitted curve, where viability falls to half of the control; fits outside the tested doses are given as limits. For AUC the same curve is integrated over the 256-fold range of doses and scaled to a fraction; it is 1 without any effect and falls as sensitivity rises. Any top dose called inferred is not printed in the source and was worked back from the curve model.
Columns and labels:
Experiment in all cases: Viability of human cancer cell lines after 72 h of drug (GDSC screen)
Lenalidomide = compound: Nc1cccc2c1CN(C1CCC(=O)NC1=O)C2=O [Lenalidomide]; settings: top dose 5 µM; top dose inferred
Protocol: (§1)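 Human cancer cell lines in 384-well plates, medium with 10% serum, drug for 72 h over a 256-fold dose range (nine 2-fold or five 4-fold steps up to the top dose). Adherent lines were fixed and stained with the nucleic acid dye Syto60, suspension lines read with resazurin; signal relative to control wells, capped at 0 and 100%. One two-parameter sigmoid per drug and line, fitted in a mixed model over all curves with the slope shared within a line.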

GW-2580 = compound: COc1ccc(COc2ccc(Cc3cnc(N)nc3N)cc2OC)cc1 [GW-2580]; settings: top dose 20 µM; top dose inferred
Protocol: as §1

SGC0946 = compound: CC(C)N(CCCNC(=O)Nc1ccc(C(C)(C)C)cc1)C[C@H]1O[C@@H](n2cc(Br)c3c(N)ncnc32)[C@H](O)[C@@H]1O [SGC0946]; settings: top dose 0.5 µM; top dose inferred
Protocol: as §1

Bryostatin 1 = compound: CCC/C=C/C=C/C(=O)O[C@H]1/C(=C/C(=O)OC)C[C@H]2C[C@H]([C@@H](C)O)OC(=O)C[C@H](O)C[C@@H]3C[C@H](OC(C)=O)C(C)(C)[C@](O)(C[C@@H]4C/C(=C/C(=O)OC)C[C@H](/C=C/C(C)(C)[C@]1(O)O2)O4)O3 [Bryostatin 1]; settings: top dose 0.008 µM; top dose inferred
Protocol: as §1

Cell Line | AUC (Lenalidomide) | IC50 (Lenalidomide) [nM] | AUC (GW-2580) | IC50 (GW-2580) [nM] | AUC (SGC0946) | IC50 (SGC0946) [nM] | AUC (Bryostatin 1) | IC50 (Bryostatin 1) [nM]
KP-3 (pancreas, adherent) | 0.984 | > 5000 | 0.984 | > 20000 | 0.952 | > 500 | 0.982 | > 8
KP-N-YN (neuroblastoma, adherent) | 0.985 | > 5000 | 0.983 | > 20000 | 0.985 | > 500 | 0.986 | > 8
KU812 (chronic myeloid leukaemia, suspension) | 0.988 | > 5000 | 0.987 | > 20000 | 0.987 | > 500 | 0.972 | > 8
KU-19-19 (bladder, adherent) | 0.987 | > 5000 | 0.987 | > 20000 | 0.986 | > 500 | 0.986 | > 8
KYM-1 (rhabdomyosarcoma, adherent) | 0.976 | > 5000 | 0.976 | > 20000 | 0.991 | > 500 | 0.991 | > 8
KYSE-50 (oesophagus, adherent) | 0.99 | > 5000 | 0.961 | > 20000 | 0.989 | > 500 | 0.925 | > 8
KYSE-70 (oesophagus, adherent) | 0.972 | > 5000 | 0.987 | > 20000 | 0.985 | > 500 | 0.978 | > 8
KYSE-150 (oesophagus, adherent) | 0.989 | > 5000 | 0.989 | > 20000 | 0.988 | > 500 | 0.95 | > 8
KYSE-220 (oesophagus, adherent) | 0.976 | > 5000 | 0.984 | > 20000 | 0.984 | > 500 | 0.979 | > 8
KYSE-450 (oesophagus, adherent) | 0.988 | > 5000 | 0.988 | > 20000 | 0.986 | > 500 | 0.988 | > 8
KYSE-510 (oesophagus, adherent) | 0.992 | > 5000 | 0.992 | > 20000 | 0.992 | > 500 | 0.992 | > 8
KYSE-520 (oesophagus, adherent) | 0.944 | > 5000 | 0.945 | > 20000 | 0.978 | > 500 | 0.931 | > 8
L-428 (Hodgkin lymphoma, suspension) | 0.989 | > 5000 | 0.991 | > 20000 | 0.989 | > 500 | 0.987 | > 8
LAMA-84 (chronic myeloid leukaemia, suspension) | 0.967 | > 5000 | 0.985 | > 20000 | 0.985 | > 500 | 0.958 | > 8
LB771-HNC (head and neck, adherent) | 0.723 | 1600 | 0.967 | > 20000 | 0.98 | > 500 | 0.963 | > 8
LB1047-RCC (kidney, adherent) | 0.983 | > 5000 | 0.98 | > 20000 | 0.98 | > 500 | 0.982 | > 8
LC4-1 (lymphoblastic leukaemia, suspension) | 0.983 | > 5000 | 0.951 | > 20000 | 0.982 | > 500 | 0.984 | > 8
LC-1-sq (lung squamous cell carcinoma, adherent) | 0.947 | > 5000 | 0.98 | > 20000 | 0.983 | > 500 | 0.982 | > 8
LCLC-97TM1 (large cell lung carcinoma, adherent) | 0.981 | > 5000 | 0.983 | > 20000 | 0.957 | > 500 | 0.967 | > 8
LCLC-103H (large cell lung carcinoma, adherent) | 0.924 | > 5000 | 0.989 | > 20000 | 0.99 | > 500 | 0.99 | > 8
LK-2 (lung squamous cell carcinoma, adherent) | 0.989 | > 5000 | 0.987 | > 20000 | 0.988 | > 500 | 0.897 | > 8
LN-18 (glioma, adherent) | 0.994 | > 5000 | 0.992 | > 20000 | 0.99 | > 500 | 0.978 | > 8
LN-405 (glioma, adherent) | 0.976 | > 5000 | 0.955 | > 20000 | 0.982 | > 500 | 0.866 | > 8
LNZTA3WT4 (glioma, adherent) | 0.988 | > 5000 | 0.981 | > 20000 | 0.981 | > 500 | 0.965 | > 8

Cell Line | AUC (Lenalidomide) | IC50 (Lenalidomide) [nM] | AUC (GW-2580) | IC50 (GW-2580) [nM] | AUC (SGC0946) | IC50 (SGC0946) [nM] | AUC (Bryostatin 1) | IC50 (Bryostatin 1) [nM]
LOU-NH91 (lung squamous cell carcinoma, adherent) | 0.986 | > 5000 | 0.98 | > 20000 | 0.96 | > 500 | 0.979 | > 8
LOUCY (T-cell lymphoblastic leukaemia, suspension) | 0.992 | > 5000 | 0.992 | > 20000 | 0.991 | > 500 | 0.989 | > 8
LS-180 (large intestine, adherent) | 0.982 | > 5000 | 0.982 | > 20000 | 0.983 | > 500 | 0.983 | > 8
LS-513 (large intestine, adherent) | 0.986 | > 5000 | 0.987 | > 20000 | 0.986 | > 500 | 0.974 | > 8
LU-135 (small cell lung carcinoma, suspension) | 0.991 | > 5000 | 0.982 | > 20000 | 0.991 | > 500 | 0.981 | > 8
LXF-289 (lung adenocarcinoma, adherent) | 0.986 | > 5000 | 0.984 | > 20000 | 0.985 | > 500 | 0.962 | > 8
LoVo (large intestine, adherent) | 0.968 | > 5000 | 0.985 | > 20000 | 0.97 | > 500 | 0.904 | > 8
M14 (melanoma, adherent) | 0.987 | > 5000 | 0.986 | > 20000 | 0.982 | > 500 | 0.816 | 4.75
MC116 (B-cell lymphoma, suspension) | 0.999 | > 5000 | 0.999 | > 20000 | 0.998 | > 500 | 0.997 | > 8
MDA-MB-175-VII (breast, adherent) | 0.988 | > 5000 | 0.983 | > 20000 | 0.986 | > 500 | 0.981 | > 8
MDA-MB-330 (breast, adherent) | 0.949 | > 5000 | 0.971 | > 20000 | 0.982 | > 500 | 0.97 | > 8
MDA-MB-361 (breast, adherent) | 0.959 | > 5000 | 0.989 | > 20000 | 0.987 | > 500 | 0.977 | > 8
MDA-MB-415 (breast, adherent) | 0.983 | > 5000 | 0.954 | > 20000 | 0.913 | > 500 | 0.972 | > 8
MDA-MB-436 (breast, adherent) | 0.983 | > 5000 | 0.962 | > 20000 | 0.981 | > 500 | 0.973 | > 8
MDA-MB-453 (breast, adherent) | 0.986 | > 5000 | 0.952 | > 20000 | 0.984 | > 500 | 0.984 | > 8
MDA-MB-468 (breast, adherent) | 0.988 | > 5000 | 0.966 | > 20000 | 0.978 | > 500 | 0.872 | 7.1
MDST8 (large intestine, adherent) | 0.981 | > 5000 | 0.984 | > 20000 | 0.929 | > 500 | 0.983 | > 8
ME-1 (acute myeloid leukaemia, suspension) | 0.982 | > 5000 | 0.988 | > 20000 | 0.988 | > 500 | 0.989 | > 8
ME-180 (cervix, adherent) | 0.983 | > 5000 | 0.981 | > 20000 | 0.984 | > 500 | 0.982 | > 8
MEL-JUSO (melanoma, adherent) | 0.957 | > 5000 | 0.978 | > 20000 | 0.982 | > 500 | 0.981 | > 8
MES-SA (uterus, adherent) | 0.992 | > 5000 | 0.992 | > 20000 | 0.991 | > 500 | 0.987 | > 8
MFE-280 (endometrium, adherent) | 0.982 | > 5000 | 0.971 | > 20000 | 0.979 | > 500 | 0.967 | > 8
MFE-296 (endometrium, adherent) | 0.983 | > 5000 | 0.962 | > 20000 | 0.984 | > 500 | 0.965 | > 8
